Results reported in patent US9777070B2, “Anti-PTK7 antibody-drug conjugates” (Pfizer Inc., priority 2014, dated 2017).

Columns and labels:
[1] = tested on: PTK7 on OE19 and OE21 cells; test: Flow cytometry staining of esophageal cancer cell lines with hu24; type: binding, human; conditions: OE19 cells; 5 μg/mL; versus isotype control
Procedure: In another experiment, the saporin assay was performed on two cell lines derived from esophageal cancers, OE19 and OE21 (Sigma Aldrich). To determine PTK7 expression on the cell lines, the cells were cultured and single cell suspensions were isolated using Versene (Invitrogen). […] Cells were washed again in PBS/2% FCS, then incubated at 1:200 with anti-human Alexa Fluor647 (Jackson Immunoresearch) for 20 minutes. Cells were washed again, resuspended in DAPI, and then analyzed on a BD FACSCanto to determine the change in mean fluorescence intensity (ΔMFI).

[2] = tested on: Breast-22 (BR22) TNBC PDX; test: In vivo efficacy, PDX tumor growth; parameters: species or system human tumor in NOD/SCID mice
Source text: (§1) The effects of anti-PTK7 antibody-drug conjugates were further evaluated on the in vivo growth of human tumor patient-derived xenografts (PDX). Primary tumor resection samples were procured from clinical sites following Institutional Review Board for the Protection of Human Subjects approval and in accordance with HIPAA regulations. Tumor fragments were stored and shipped in Hypothermasol (Biolife Solutions) on ice and were embedded in Matrigel (BD) containing a proprietary mix of growth factors and implanted subcutaneously into the mammary fatpad of female NOD/SCID mice within 24 hours of resection. Mice were monitored for health status daily and for tumor growth initially by visual inspection twice per week. Once the tumors were palpable, measurements of tumor volume began to track tumor growth and estimate cell doubling time. Tumor volume was estimated using the equation V=(A*B^2)/2 where A is the long axis and B is the short axis. When tumors reached a volume of 500 mm^3 to 1,500 mm^3, they were harvested for study and for re-transplant as a patient-derived xenograft (PDX). Depending on the line, mechanical and/or chemical dissociation can be used to separate the individual cells for passage. Live cells were inoculated into naïve animals with 10,000 to 50,000 cells per animals
(§2) For efficacy studies, tumors were harvested from passaging studies and cells were dissociated into single cell suspension. Preparations were counted for live cells using Trypan blue exclusion and 10,000 to 50,000 cells were inoculated per mouse in Matrigel. […] Tumor growth was initially followed by palpability with measurements beginning once tumor volumes reached about 30 mm^3. Studies were randomized based on tumor size once a cohort of tumor-bearing mice reached 140 mm^3 to 180 mm^3. Animals were dosed by intraperitoneal injection twice a week for two weeks (q4dx4). Study groups were followed until individual mice or entire group tumor measurements reached 1200 mm^3 when sacrifice was indicated in accordance with IACUC protocol. For selected dosing studies, pharmacokinetic submandibular bleeds were performed at 2 hours, 36 hours and 72 hours. A volume of 10 μL of blood was immediately pipetted into 90 μL of HBS-P (GE Healthcare). Samples were stored at −80° C. prior to analysis. For each tumor measurement the tumor volume±standard error of the mean (SEM) is provided. GT=Group Terminated due to large tumor size.
(§3) Animals were dosed every four days for four cycles (Q4Dx4) by intraperitoneal injection except the BR5 study which was by intravenous injection on the same schedule. Tumor measurements were recorded one or two times per week using digital calipers and tumor volume was estimated using the equation V=(A×B^2)/2 where A is the long axis and B is the short axis. Animal body weights were measured and recorded at least once a week. Study groups were followed until individual mice or entire group tumor measurements reached 1200 mm^3 at which point sacrifice was indicated in accordance with IACUC protocol. For the BR5 study, animals were sacrificed once tumor volume approached 15% of the body weight at staging in accordance with IACUC protocol.
(§4) Tumor growth inhibition (TGI) was calculated using the equation % TGI=[1−(mean tumor volume of treated)/(mean tumor volume of vehicle)]. […] Tumor regression was defined as a reduction in mean tumor volume after dosing. In cases where tumors regressed, Time To Progression (TTP) indicates the number of days between the first does and the time at which mean tumor volume increased from the previous measurement to a statistically significant degree.

[3] = tested on: Breast-31 (BR31) TNBC PDX; test: In vivo efficacy, PDX tumor growth; parameters: species or system human tumor in NOD/SCID mice; conditions: 3 mg/kg
Source text: as §1, §2, §3, §4

[4] = type: in vivo, mouse; conditions: BR13 PDX and BR22 PDX; three time points following the third administration; data not shown
Source text: as §2, with “For each tumor measurement the tumor volume±standard error of the mean (SEM) is provided. GT=Group Terminated due to large tumor size.” left out
To confirm exposure of hu24-vc0101 ADC in the efficacy studies, plasma concentrations of ADC and total antibody were determined for two PDX models, BR13 PDX and BR22 PDX. Samples were collected at three time points following the third administration of ADC and concentrations were measured by Ligand Binding Assay (LBA) (data not shown).

B1: hu24 (antibody)
heavy: QVQLVQSGPEVKKPGASVKVSCKASGYTFTDYAVHWVRQAPGKRLEWIGVISTYNDYTYNNQDFKGRVTMTRDTSASTAYMELSRLRSEDTAVYYCARGNSYFYALDYWGQGTSVTVSS[letters of human IgG1 constant region omitted]
light: EIVLTQSPATLSLSPGERATLSCRASESVDSYGKSFMHWYQQKPGQAPRLLIYRASNLESGIPARFSGSGSGTDFTLTISSLEPEDFAVYYCQQSNEDPWTFGGGTKLEIKRTVAAPSVFIFPPSDEQLKSGTASVVCLLNNFYPREAKVQWKVDNALQSGNSQESVTEQDSKDSTYSLSSTLTLSKADYEKHKVYACEVTHQGLSSPVTKSFNRGEC
change in mean fluorescence intensity (ΔMFI) [1]: 0

B2: hu24-vc0101: hu24 conjugated through cysteines to vc0101 linker-payload; average DAR approximately 4 (conjugate)
heavy: QVQLVQSGPEVKKPGASVKVSCKASGYTFTDYAVHWVRQAPGKRLEWIGVISTYNDYTYNNQDFKGRVTMTRDTSASTAYMELSRLRSEDTAVYYCARGNSYFYALDYWGQGTSVTVSS[letters of human IgG1 constant region omitted]
light: EIVLTQSPATLSLSPGERATLSCRASESVDSYGKSFMHWYQQKPGQAPRLLIYRASNLESGIPARFSGSGSGTDFTLTISSLEPEDFAVYYCQQSNEDPWTFGGGTKLEIKRTVAAPSVFIFPPSDEQLKSGTASVVCLLNNFYPREAKVQWKVDNALQSGNSQESVTEQDSKDSTYSLSSTLTLSKADYEKHKVYACEVTHQGLSSPVTKSFNRGEC
Regression (TTP, Days) or % TGI ([2]; 0.3 mg/kg, Q4Dx4 ip): None
tumor volume ± SEM ([2]; 1 mg/kg, Day 0): 172 ± 22 mm^3
tumor volume ± SEM ([2]; 1 mg/kg, Day 7): 245 ± 28 mm^3
tumor volume ± SEM ([2]; 1 mg/kg, Day 14): 157 ± 48 mm^3
tumor volume ± SEM ([2]; 1 mg/kg, Day 21): 213 ± 97 mm^3
tumor volume ± SEM ([2]; 1 mg/kg, Day 28): 266 ± 114 mm^3
tumor volume ± SEM ([2]; 1 mg/kg, Day 35): 357 ± 156 mm^3
tumor volume ± SEM ([2]; 1 mg/kg, Day 42): 758 ± 225 mm^3
tumor volume ± SEM ([2]; 1 mg/kg, Day 49): 912 ± 203 mm^3
Regression (TTP, Days) ([2]; 1 mg/kg, Q4Dx4 ip): Regression (21) Days
tumor volume ± SEM ([2]; 3 mg/kg, Day 0): 170 ± 19 mm^3
tumor volume ± SEM ([2]; 3 mg/kg, Day 7): 89 ± 22 mm^3
tumor volume ± SEM ([2]; 3 mg/kg, Day 14): 21 ± 5 mm^3
tumor volume ± SEM ([2]; 3 mg/kg, Day 21): 0 ± 0 mm^3
tumor volume ± SEM ([2]; 3 mg/kg, Day 28): 0 ± 0 mm^3
tumor volume ± SEM ([2]; 3 mg/kg, Day 35): 0 ± 0 mm^3
tumor volume ± SEM ([2]; 3 mg/kg, Day 42): 0 ± 0 mm^3
tumor volume ± SEM ([2]; 3 mg/kg, Day 49): 0 ± 0 mm^3
tumor volume ± SEM ([2]; 3 mg/kg, Day 56): 0 ± 0 mm^3
tumor volume ± SEM ([2]; 3 mg/kg, Day 63): 0 ± 0 mm^3
tumor volume ± SEM ([2]; 3 mg/kg, Day 70): 0 ± 0 mm^3
tumor volume ± SEM ([2]; 3 mg/kg, Day 77): 0 ± 0 mm^3
tumor volume ± SEM ([2]; 3 mg/kg, Day 84): 0 ± 0 mm^3
tumor volume ± SEM ([2]; 3 mg/kg, Day 91): 0 ± 0 mm^3
tumor volume ± SEM ([2]; 3 mg/kg, Day 98): 0 ± 0 mm^3
tumor volume ± SEM ([2]; 3 mg/kg, Day 105): 0 ± 0 mm^3
tumor volume ± SEM ([2]; 3 mg/kg, Day 112): 0 ± 0 mm^3
tumor volume ± SEM ([2]; 3 mg/kg, Day 119): 0 ± 0 mm^3
tumor volume ± SEM ([2]; 3 mg/kg, Day 126): 0 ± 0 mm^3
tumor volume ± SEM ([2]; 3 mg/kg, Day 133): 0 ± 0 mm^3
tumor volume ± SEM ([2]; 3 mg/kg, Day 140): 0 ± 0 mm^3
tumor volume ± SEM ([2]; 3 mg/kg, Day 147): 0 ± 0 mm^3
tumor volume ± SEM ([2]; 3 mg/kg, Day 154): 0 ± 0 mm^3
tumor volume ± SEM ([2]; 3 mg/kg, Day 161): 0 ± 0 mm^3
Regression (TTP, Days) ([2]; 3 mg/kg, Q4Dx4 ip): Regression (205) Days
tumor volume ± SEM ([3]; Day 0): 159 ± 15 mm^3
tumor volume ± SEM ([3]; Day 7): 188 ± 12 mm^3
tumor volume ± SEM ([3]; Day 14): 82 ± 7 mm^3
tumor volume ± SEM ([3]; Day 21): 21 ± 3 mm^3
tumor volume ± SEM ([3]; Day 28): 0 ± 0 mm^3
tumor volume ± SEM ([3]; Day 35): 0 ± 0 mm^3
tumor volume ± SEM ([3]; Day 42): 0 ± 0 mm^3
tumor volume ± SEM ([3]; Day 49): 0 ± 0 mm^3
tumor volume ± SEM ([3]; Day 56): 0 ± 0 mm^3
tumor volume ± SEM ([3]; Day 63): 0 ± 0 mm^3
tumor volume ± SEM ([3]; Day 70): 0 ± 0 mm^3
tumor volume ± SEM ([3]; Day 77): 1 ± 1 mm^3
tumor volume ± SEM ([3]; Day 84): 2 ± 2 mm^3
tumor volume ± SEM ([3]; Day 91): 10 ± 10 mm^3
tumor volume ± SEM ([3]; Day 98): 13 ± 13 mm^3
tumor volume ± SEM ([3]; Day 105): 111 ± 92 mm^3
tumor volume ± SEM ([3]; Day 112): 370 ± 269 mm^3
tumor volume ± SEM ([3]; Day 119): 521 ± 429 mm^3
tumor volume ± SEM ([3]; Day 126): 551 ± 428 mm^3
tumor volume ± SEM ([3]; Day 133): 745 ± 499 mm^3
tumor volume ± SEM ([3]; Day 140): 765 ± 494 mm^3
tumor volume ± SEM ([3]; Day 147): 794 ± 488 mm^3
Regression (TTP, Days) ([3]; Q4Dx4 ip): Regression (105) Days
plasma exposure of ADC and total antibody [4]: drug exposures were comparable in these tumor models
